Laboratory results from PubChem BioAssay AID1240 (Sanford-Burnham Center for Chemical Genomics, 2008).
Among all 50,000 compounds or so, about 800 (1.6%) showed an effect of 50% or more. The list shows a part of the results.

Each molecule was assayed against Bcl-2-like protein 10 (Homo sapiens) (UniProt Q9HD36) (assay: Phenotype converters, Bcl-B/TR3 peptide binding displacement, primary biochemical FP (AID 1240;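 note: 0% = Bcl-B with tracer peptide and DMSO and 100% = tracer peptide lacking Bcl-B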)). Details: GST-Bcl-B / FITC-TR3 peptide fluorescence polarization; stronger effect = higher value; compound at 3.75 mg/L.
UniProt Q9HD36, sequence (Q9HD36 whole entry, looked up): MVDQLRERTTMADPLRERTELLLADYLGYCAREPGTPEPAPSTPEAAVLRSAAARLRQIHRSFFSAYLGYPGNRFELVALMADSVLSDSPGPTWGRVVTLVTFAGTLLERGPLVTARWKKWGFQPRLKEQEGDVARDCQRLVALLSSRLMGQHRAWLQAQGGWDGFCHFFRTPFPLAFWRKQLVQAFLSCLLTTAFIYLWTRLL
CCN(CC)CCCCOc1cc(C)ccc1Cl showed a displacement of 3.4%. With O=C(c1c(F)cccc1F)N1CCN(c2cc(N3CCCC3)c(F)cc2[N+](=O)[O-])CC1 the displacement was -9.1%. For COc1ccccc1NC(=O)c1c(NC(=O)Cc2ccccc2)sc2c1CCC(C)C2 (stereo unspecified), the displacement was -2.1%. Cc1cc(Cl)ccc1OCC(=O)Nc1nc2ccccc2s1 showed a displacement of -7.7%. Molecule CC(C)(C)C1(O)CC(C(F)(F)F)=NN1C(=O)c1ccc([N+](=O)[O-])cc1 (stereo unspecified) has a displacement of 9.4%. O=C(c1ccco1)N(O)c1ccccc1 was tested, and the displacement was -4.7%. Molecule CC(=O)Nn1c(O)c(C2=c3cc(C)ccc3=NC2=O)sc1=S has a displacement of -7.7%. In the case of CCOCCOC(=O)c1ccc(NC(=O)/C=C/c2ccc(OC)c(Br)c2)cc1, the displacement is reported as 6.4%. Work on COc1ccc2c(c1OC)C(=O)OC2c1cc([N+](=O)[O-])ccc1O (stereo unspecified) yielded a displacement of -3.6%. Work on Cc1cc(S(=O)(=O)N2CCCC2C(=O)O)c(C)cc1Cl (stereo unspecified) yielded a displacement of -5.8%. With O=C(NCc1ccc2c(c1)OCO2)c1cc(-c2ccccc2Cl)nc2ccccc12 the displacement was 7.1%. For COc1ccccc1N(CC(=O)Nc1ccc(C)cc1C)S(=O)(=O)c1ccccc1, the displacement was 5.7%. Cc1n[nH]c(C)c1CCC(=O)N/N=C/c1cccs1 gave a displacement of -5.5%. Work on O=C(Nc1ccc(O)cc1)c1cccc(Oc2ccc([N+](=O)[O-])cc2)c1 yielded a displacement of 10%. Molecule O=C1N=C(N2CCOCC2)S/C1=C/c1ccco1 has a displacement of 35.7%. Molecule CCCCOC(=O)c1cccc(NC(=O)C(C)Oc2ccc(OC)cc2)c1 (stereo unspecified) has a displacement of 12.8%. CN(C)c1cccc(C(=O)Nc2ccccc2F)c1 gave a displacement of 8.2%. Molecule CC1CCc2c(sc(NC(=O)c3ccccc3)c2C(N)=O)C1 (stereo unspecified) has a displacement of 11.2%. With O=C(c1ccccc1Cl)c1coc2ccc(Cl)cc2c1=O the displacement was 6.5%. For CCc1cc2c(cc1C(=O)c1ccccc1)OCCO2, the displacement was 4.5%. Molecule COc1ccc(/C=N/NC(=O)c2cc(=O)[nH]c3ccccc23)cc1OC has a displacement of -8.7%. Molecule O=c1c([N+](=O)[O-])c(Nc2ccc(Br)cc2)c2ccccc2n1-c1ccccc1 has a displacement of 9.9%. Work on CCOc1ccc(N(CC(=O)Nc2cc(C)ccc2C)S(=O)(=O)c2ccc(SC)cc2)cc1 yielded a displacement of -0.6%. CCCc1cc(=O)oc2c(C)c(OC(C)=O)ccc12 gave a displacement of -6.4%. CC(C)C(=O)Nc1ccc2oc(-c3cccc4ccccc34)nc2c1 was tested, and the displacement was 17.7%. O=C(CN(c1cccc([N+](=O)[O-])c1)S(=O)(=O)c1ccccc1)N[C@@H]1C[C@H]2CC[C@@H]1C2 gave a displacement of -11.4%. Molecule CCOc1ccc(-n2c(O)c(C=NCC3(C)CC(O)CC(C)(C)C3)c(=O)[nH]c2=O)cc1 (stereo unspecified) has a displacement of -45%. O=C(CC(c1ccccc1)c1cc(C(=O)N2CCOCC2)ccc1O)N1CCOCC1 (stereo unspecified) showed a displacement of -15.2%. In the case of Cc1cc(C)c2oc(-c3cccc(NC(=O)COc4ccccc4[N+](=O)[O-])c3)nc2c1, the displacement is reported as -24.2%. With CCCC(=O)NC(c1ccc(OC)c(OC)c1)c1c(OC(C)=O)ccc2ccccc12 (stereo unspecified) the displacement was -9.2%. Cc1ccc2cccc(NS(=O)(=O)c3ccccc3)c2n1 was tested, and the displacement was 14%. CCn1nnnc1-c1ccc(OC)c(S(=O)(=O)NCCc2ccccc2)c1 was tested, and the displacement was 7.3%. In the case of CC(=O)NS(=O)(=O)c1ccc(NC(=O)c2c(C)c(-c3ccccc3)nc3ccccc23)cc1, the displacement is reported as -4.4%. CC(=O)c1ccc(NC(=O)CN(c2cccc([N+](=O)[O-])c2)S(=O)(=O)c2ccccc2)cc1 gave a displacement of 7.7%. c1ccc(-c2cc(-c3ccncc3)nc3ccc4ccccc4c23)cc1 gave a displacement of 2.4%. CCOC(=O)c1cc(=O)n2[nH]c(-c3ccc(-c4ccccc4)cc3)cc2n1 gave a displacement of -0.8%. C=CCN=CC1=C(O)CC(C)(C)CC1=O was tested, and the displacement was 7.8%. Molecule CCCCOc1ccc(-c2nc(Cc3ccccc3)no2)cc1 has a displacement of -9%. CC(=O)Nc1ccc(S(=O)(=O)N2CCN=C2C)cc1 was tested, and the displacement was -2.8%. COc1cccc(-c2cc(C(=O)NCc3cccnc3)c3ccccc3n2)c1 gave a displacement of 0.7%. With N#Cc1c2n(c3c(=O)n(Cc4ccccc4Cl)cnc13)CCCC2 the displacement was -7.7%. Molecule Cc1ccc(NC(=O)N(Cc2ccccc2)C(C)C2CC2)cc1 (stereo unspecified) has a displacement of 13%. For O=C(NC1CCCCCC1)c1cc(Cl)ccc1[N+](=O)[O-], the displacement was -7.2%. Work on COc1ccc(/C=C2\C(=O)NC(=O)N(c3ccc(F)cc3)C2=O)cc1OC yielded a displacement of -27.7%. With COc1cc(OC)cc(C(=O)Nc2ccc(OC)c3ccccc23)c1 the displacement was 10%. Work on Nc1ccc2nc(-c3cccc(Cl)c3)oc2c1 yielded a displacement of 33.8%. In the case of Cc1ccc(NCCC(=O)c2cccs2)cc1Cl, the displacement is reported as 7.5%. For Cc1cccc(/C=C2/SC(=S)N(C)C2=O)c1, the displacement was 5.6%. Molecule O=C(COc1ccccc1[N+](=O)[O-])Nc1ccc(O)c(-c2nc3ccccc3s2)c1 has a displacement of -0.9%. O=C(CCN1CCOCC1)c1ccc(Cl)cc1 was tested, and the displacement was -3.9%. Molecule Nc1ccc(S(=O)(=O)N2CCc3ccccc32)cc1 has a displacement of -8.3%. In the case of Cc1ccccc1-n1c(C)cc(/C=N/NC(=O)c2cccnc2)c1C, the displacement is reported as -30.1%. With CC(C)(C)C(C)(O)C#CCN1CCOCC1 (stereo unspecified) the displacement was 3.9%. CCOc1cccc(C(=O)Nc2nnc(-c3ccco3)s2)c1 was tested, and the displacement was 6.1%. CCN(CC)c1ccc(/C=C2\SC(N3CCCC3)=NC2=O)cc1 gave a displacement of -76.5%. Molecule COc1ccc(N(CC(=O)NC(C)(C)C)S(=O)(=O)c2ccccc2[N+](=O)[O-])c(OC)c1 has a displacement of -1.3%. In the case of Cc1ccc(S(=O)(=O)NCc2ccc3c(c2)OCO3)cc1, the displacement is reported as -7.8%. Work on O=C(Nc1ccc(F)cc1)c1ccc(-c2ccccc2)cc1 yielded a displacement of 13.9%. NS(=O)(=O)c1ccc(NC(=O)COc2ccc3ccccc3c2)cc1 was tested, and the displacement was 3%. COc1ccc(/C=N/NC(=O)C(=O)NCc2ccc(Cl)cc2)cc1 gave a displacement of 12.4%. Cc1ccc(C(=O)NCc2ccncc2)cc1[N+](=O)[O-] was tested, and the displacement was -2.5%. Work on O=C(Nc1cccc(Cl)c1)C1CC(=O)N(c2ccc(Br)cc2)C1 (stereo unspecified) yielded a displacement of -1.1%. Molecule CCOc1ccc(C2=C/C(=C/c3ccc(OC)cc3)C(=O)O2)cc1 has a displacement of -0.6%. Molecule CCOC(=O)C(C)Oc1cccc2c1ccc1c(-c3ccccc3)cc(=O)oc12 (stereo unspecified) has a displacement of 11.4%. Work on Cc1cccc(CN2CCN(C(=O)c3cccs3)CC2)c1 yielded a displacement of 12.7%. O=C1c2ccccc2C(=O)N1CCc1nc2ccccc2c(=O)n1-c1cccnc1 gave a displacement of -6.2%. In the case of NNC(=O)CNC(c1ccccc1)c1cc(Br)ccc1NC(=O)c1ccccc1Cl (stereo unspecified), the displacement is reported as -16.1%. O=C1NC(=Nc2ccc(O)cc2)CS1 showed a displacement of 2.6%. Cc1cccc(C)c1NC(=O)COc1ccc(Cl)cc1Cl gave a displacement of 11.4%. For COc1ccc(NC(=O)CCCOc2ccccc2)c(OC)c1, the displacement was -3.2%. Work on Fc1ccccc1C=NN1CCN(Cc2ccccc2)CC1 yielded a displacement of -0.6%.
